From patent US6653460B1 (priority 1996, dated 2003)
Like-named read-outs stand apart in the source and are kept apart here.

What was measured:
[1] = system: T-type calcium channels (GH-3 cells); conditions: read-out: apparent IC50 for block of remaining transient increase in internal calcium
[2] = target: class E voltage-gated calcium channel (human alpha-1E subunit) stably expressed in 192C cells (HEK 293) (human) (UniProt Q15878); test: cell-based or functional assay
[3] = system: L-type and T-type calcium channels (GH3 cells)

Sequence of UniProt Q15878 (Q15878 whole entry): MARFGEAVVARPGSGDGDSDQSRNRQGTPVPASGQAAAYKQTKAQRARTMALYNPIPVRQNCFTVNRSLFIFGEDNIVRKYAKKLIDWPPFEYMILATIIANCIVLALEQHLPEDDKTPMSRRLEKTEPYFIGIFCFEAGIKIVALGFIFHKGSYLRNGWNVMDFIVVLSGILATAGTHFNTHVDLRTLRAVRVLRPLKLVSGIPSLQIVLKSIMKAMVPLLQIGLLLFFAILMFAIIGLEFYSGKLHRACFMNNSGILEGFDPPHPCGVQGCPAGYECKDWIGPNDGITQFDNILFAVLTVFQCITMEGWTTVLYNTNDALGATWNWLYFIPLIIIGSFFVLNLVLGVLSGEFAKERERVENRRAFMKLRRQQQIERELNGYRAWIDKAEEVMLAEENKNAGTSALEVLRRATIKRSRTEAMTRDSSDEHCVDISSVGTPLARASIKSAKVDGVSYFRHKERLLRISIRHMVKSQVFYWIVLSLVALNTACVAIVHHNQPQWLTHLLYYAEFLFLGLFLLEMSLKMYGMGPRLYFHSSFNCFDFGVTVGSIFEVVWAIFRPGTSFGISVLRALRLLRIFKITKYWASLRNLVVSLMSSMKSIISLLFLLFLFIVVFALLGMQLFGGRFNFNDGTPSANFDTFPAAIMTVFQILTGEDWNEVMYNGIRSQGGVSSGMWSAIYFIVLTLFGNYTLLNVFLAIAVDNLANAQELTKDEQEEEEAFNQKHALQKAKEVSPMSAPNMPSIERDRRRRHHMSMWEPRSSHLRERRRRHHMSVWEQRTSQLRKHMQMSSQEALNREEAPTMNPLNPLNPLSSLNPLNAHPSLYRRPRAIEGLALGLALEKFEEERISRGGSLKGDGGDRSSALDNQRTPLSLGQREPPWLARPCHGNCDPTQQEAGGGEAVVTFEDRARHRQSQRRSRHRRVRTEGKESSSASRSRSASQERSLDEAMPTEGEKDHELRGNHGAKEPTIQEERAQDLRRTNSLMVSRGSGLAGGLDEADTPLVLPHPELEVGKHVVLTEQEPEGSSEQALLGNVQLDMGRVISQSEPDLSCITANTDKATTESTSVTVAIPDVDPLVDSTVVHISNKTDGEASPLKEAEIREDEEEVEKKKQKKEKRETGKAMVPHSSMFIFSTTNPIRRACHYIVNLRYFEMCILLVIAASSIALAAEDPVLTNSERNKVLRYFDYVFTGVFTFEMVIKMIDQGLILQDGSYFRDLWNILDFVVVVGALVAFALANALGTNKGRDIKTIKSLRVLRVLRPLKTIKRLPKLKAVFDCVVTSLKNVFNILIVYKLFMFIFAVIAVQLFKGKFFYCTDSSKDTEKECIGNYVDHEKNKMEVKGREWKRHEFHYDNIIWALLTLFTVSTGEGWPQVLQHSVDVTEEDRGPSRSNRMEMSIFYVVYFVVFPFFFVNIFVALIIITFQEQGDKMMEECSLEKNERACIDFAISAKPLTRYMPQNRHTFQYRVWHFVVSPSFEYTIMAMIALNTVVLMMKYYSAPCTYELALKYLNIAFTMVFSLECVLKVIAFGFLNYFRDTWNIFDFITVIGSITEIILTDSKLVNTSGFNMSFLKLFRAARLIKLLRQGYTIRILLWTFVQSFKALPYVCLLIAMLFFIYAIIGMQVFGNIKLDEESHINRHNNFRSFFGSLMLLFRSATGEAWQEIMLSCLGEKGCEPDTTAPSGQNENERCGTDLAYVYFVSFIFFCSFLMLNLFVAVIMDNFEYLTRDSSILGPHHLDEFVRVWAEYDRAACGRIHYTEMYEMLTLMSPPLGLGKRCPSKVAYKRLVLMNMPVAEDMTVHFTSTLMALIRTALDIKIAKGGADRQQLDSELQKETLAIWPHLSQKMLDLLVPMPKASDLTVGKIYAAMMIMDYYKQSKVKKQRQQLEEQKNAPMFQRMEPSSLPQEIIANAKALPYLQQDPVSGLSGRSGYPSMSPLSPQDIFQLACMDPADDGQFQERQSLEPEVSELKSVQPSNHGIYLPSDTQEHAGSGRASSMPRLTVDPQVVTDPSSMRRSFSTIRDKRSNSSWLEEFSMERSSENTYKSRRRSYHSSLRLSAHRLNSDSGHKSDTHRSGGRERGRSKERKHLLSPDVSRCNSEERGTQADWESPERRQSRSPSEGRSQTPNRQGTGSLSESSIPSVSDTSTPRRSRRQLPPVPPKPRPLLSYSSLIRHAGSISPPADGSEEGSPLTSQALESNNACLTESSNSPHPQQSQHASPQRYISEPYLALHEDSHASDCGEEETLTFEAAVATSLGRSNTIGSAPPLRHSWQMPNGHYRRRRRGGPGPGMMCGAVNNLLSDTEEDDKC

CCOC(=O)C1=C(C)NC(C)=C(C(=O)OC)C1c1cccc(Cl)c1Cl (centres unmarked) [felodipine]
IC50 [1]: 600 nM

omega-Aga-IIIA (from UniProt P33034 1-76) (peptide)
IC50, block of peak inward calcium current, whole cell patch clamp of 192C cells [2]: 4 nM
apparent IC50, depolarization-evoked calcium influx, INDO-1 fluorescence ratio, 192C cells [2]: 5 nM

SNX-629, synthetic peptide corresponding to HG-1 (7-41)
inhibition of calcium uptake; concentration relative to HG-1 in the same assay (times the concentration of HG-1) [2]: < 20

HG-1 peptide
IC50, block of peak inward calcium current, whole cell patch clamp of 192C cells [2]: 25 nM

CCOC(=O)C1=C(C)NC(C)=C(C(=O)OC)C1c1cccc([N+](=O)[O-])c1 (centres unmarked) [nitrendipine]
IC50 ([3]; read-out: apparent IC50 for block of sustained component of depolarization evoked increase in internal calcium): 400 nM

B1: Aga-IIIA (peptide)
peptide: SCIDIGGDCDGEKDDCQCCRRNGYCSCYSLFGYLKSGCKCVVGTSAEFQGICRRKARQCYNSDPDKCESHNKPKRR
block of depolarization evoked signal ([3]; GH3 cells): potent but partial block
IC50 ([3]; read-out: apparent IC50 for block of depolarization evoked signal, GH3 cells, evaluated at 60 seconds after depolarization, partial block): 1.5 nM
